# Measurements from the supplement of paper PMC8728848.
# The other results are listed elsewhere or left out.
# B1: CvGal2 (Crassostrea virginica) (protein)
# chain: MGSSHHHHHHSSGLVPRGSHMRIREAGKRKDTTKVYQIPDGLFPGQQVMLRGRVPWGSKSFSINFSATPRMGEGDILFHLNPRPSEGVCIRNALLNGSWGAEEKWQPYFPFDDGRSFSVKIEVTNDAFRTFVNGRPFVDFLHRTDFRAGKYLTLREGAEYYDVIFQSKPNIPLTTAIHNGMRIGKTIRIRGMCTAQDGFAINFNDNRNNIYFHFNARPAQRTVVRNSYFGSWGNEETAISKEFPFYPFLYFYASFVCMEDKFAVYVNDEHFIDFAHRGNPNNISVLQIKGSVNVLDTECLEPMGEDAMTEVDSGLENGDLFVLNGLMTERGKTFAVNFLNGFTENDDIALHFNPRKSTGEVVLNSRYGGAWQSEEKVALPGVFWSNRPLQVKVETKRNKFKIYVNGVDLAKYKIRGNVEDVHAVQVKGDVFLLETLLLKRLMKPVWERLTGGIRPGTWVTLQGTPKKNWQQFVVNFALDDTLDGDIAFHFNVRRGARQVVRNHRQSGAWGREETVTPFFAFDSEATFEIVFFVKEEKFLIYFNGKLFFEFVHRVPVERITHIYMDGDCNFYEPEVVI
# Tests used:
# Experiment in all cases: glycan array binding signal (z-score within array); higher = stronger binding
# Conditions in all cases: glycan notation: IUPAC condensed, linker removed
# [1] = molecular target: Neu5Ac(a2-6)GlcNAc(b1-4)GlcNAc(b1-4)GlcNAc
# Method in brief: (§1)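 Negative Z-scores can be read as non-binding. The Z-score is calculated within each array and then averaged across arrays of one protein sequence at different concentrations or buffers and across linkers. Arrays, 3228 in all, were curated from the Consortium for Functional Glycomics database and kept only where the protein sequence was available.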
# [2] = molecular target: Neu5Ac(a2-8)Neu5Ac
# Method in brief: as §1
# [3] = molecular target: Neu5Ac(a2-8)Neu5Ac(a2-3)Gal(b1-3)GalNAc(b1-4)[Neu5Ac(a2-3)]Gal(b1-4)Glc
# Method in brief: as §1
# [4] = molecular target: Neu5Ac(a2-8)Neu5Ac(a2-3)Gal(b1-3)GalNAc(b1-4)[Neu5Ac(a2-8)Neu5Ac(a2-3)]Gal(b1-4)Glc
# Method in brief: as §1
# [5] = molecular target: Neu5Ac(a2-8)Neu5Ac(a2-3)Gal(b1-4)Glc
# Method in brief: as §1
# [6] = molecular target: Neu5Ac(a2-8)Neu5Ac(a2-3)Gal(b1-4)GlcNAc
# Method in brief: as §1
# [7] = molecular target: Neu5Ac(a2-8)Neu5Ac(a2-3)[Gal(b1-3)GalNAc(b1-4)]Gal(b1-4)Glc
# Method in brief: as §1
# [8] = molecular target: Neu5Ac(a2-8)Neu5Ac(a2-3)[GalNAc(b1-4)]Gal(b1-4)Glc
# Method in brief: as §1
# [9] = molecular target: Neu5Ac(a2-8)Neu5Ac(a2-8)Neu5Ac
# Method in brief: as §1
# [10] = molecular target: Neu5Ac(a2-8)Neu5Ac(a2-8)Neu5Ac(a2-3)Gal(b1-4)Glc
# Method in brief: as §1
# [11] = molecular target: Neu5Ac(a2-8)Neu5Ac(a2-8)Neu5Ac(a2-3)[Gal(b1-3)GalNAc(b1-4)]Gal(b1-4)Glc
# Method in brief: as §1
# [12] = molecular target: Neu5Ac(a2-8)Neu5Ac(a2-8)Neu5Ac(a2-3)[GalNAc(b1-4)]Gal(b1-4)Glc
# Method in brief: as §1
# [13] = molecular target: Neu5Ac(a2-8)Neu5Ac(a2-8)Neu5Ac(a2-8)Neu5Ac(a2-3)[GalNAc(b1-4)]Gal(b1-4)Glc
# Method in brief: as §1
# [14] = molecular target: Neu5Ac(a2-8)Neu5Gc(a2-3)Gal(b1-4)GlcNAc
# Method in brief: as §1
# [15] = molecular target: Neu5Ac(b2-6)Gal(b1-4)GlcNAc
# Method in brief: as §1
# [16] = molecular target: Neu5Ac(b2-6)GalNAc
# Method in brief: as §1
# [17] = molecular target: Neu5Ac9Ac(a2-3)Gal(b1-3)GlcNAc
# Method in brief: as §1
# [18] = molecular target: Neu5Ac9Ac(a2-3)Gal(b1-4)GlcNAc
# Method in brief: as §1
# [19] = molecular target: Neu5Ac9Ac(a2-6)Gal(b1-4)GlcNAc
# Method in brief: as §1
# [20] = molecular target: Neu5Gc(a2-3)Gal(b1-3)GlcNAc
# Method in brief: as §1
# [21] = molecular target: Neu5Gc(a2-3)Gal(b1-3)[Fuc(a1-4)]GlcNAc
# Method in brief: as §1
# [22] = molecular target: Neu5Gc(a2-3)Gal(b1-4)Glc
# Method in brief: as §1
# [23] = molecular target: Neu5Gc(a2-3)Gal(b1-4)GlcNAc
# Method in brief: as §1
# [24] = molecular target: Neu5Gc(a2-3)Gal(b1-4)GlcNAc(b1-3)Gal(b1-4)GlcNAc(b1-2)Man(a1-3)[Neu5Gc(a2-3)Gal(b1-4)GlcNAc(b1-3)Gal(b1-4)GlcNAc(b1-2)Man(a1-6)]Man(b1-4)GlcNAc(b1-4)GlcNAc
# Method in brief: as §1
# [25] = molecular target: Neu5Gc(a2-3)Gal(b1-4)[Fuc(a1-3)]GlcNAc
# Method in brief: as §1
# [26] = molecular target: Neu5Gc(a2-6)Gal(b1-4)GlcNAc
# Method in brief: as §1
# [27] = molecular target: Neu5Gc(a2-6)GalNAc
# Method in brief: as §1
# [28] = molecular target: Neu5Gc(a2-8)Neu5Ac(a2-3)Gal(b1-4)GlcNAc
# Method in brief: as §1
# [29] = molecular target: Neu5Gc(a2-8)Neu5Gc(a2-3)Gal(b1-4)GlcNAc
# Method in brief: as §1
# [30] = molecular target: Neu5Gc(a2-8)Neu5Gc(a2-3)Gal(b1-4)GlcNAc(b1-3)Gal(b1-4)GlcNAc
# Method in brief: as §1
# [31] = molecular target: Neu5Gc(a2-8)Neu5Gc(a2-6)Gal(b1-4)GlcNAc
# Method in brief: as §1
# [32] = molecular target: Neu5Gc(b2-6)Gal(b1-4)GlcNAc
# Method in brief: as §1
binder,measurement,setting,value
B1,glycan array binding signal (z-score),[1],-0.335
same,glycan array binding signal (z-score),[2],-0.332
same,glycan array binding signal (z-score),[3],-0.329
same,glycan array binding signal (z-score),[4],-0.298
same,glycan array binding signal (z-score),[5],-0.336
same,glycan array binding signal (z-score),[6],-0.335
same,glycan array binding signal (z-score),[7],-0.316
same,glycan array binding signal (z-score),[8],-0.346
same,glycan array binding signal (z-score),[9],-0.335
same,glycan array binding signal (z-score),[10],-0.336
same,glycan array binding signal (z-score),[11],-0.325
same,glycan array binding signal (z-score),[12],-0.338
same,glycan array binding signal (z-score),[13],-0.338
same,glycan array binding signal (z-score),[14],0.001
same,glycan array binding signal (z-score),[15],-0.332
same,glycan array binding signal (z-score),[16],-0.335
same,glycan array binding signal (z-score),[17],-0.322
same,glycan array binding signal (z-score),[18],-0.252
same,glycan array binding signal (z-score),[19],-0.321
same,glycan array binding signal (z-score),[20],-0.336
same,glycan array binding signal (z-score),[21],-0.338
same,glycan array binding signal (z-score),[22],-0.314
same,glycan array binding signal (z-score),[23],-0.332
same,glycan array binding signal (z-score),[24],-0.319
same,glycan array binding signal (z-score),[25],-0.299
same,glycan array binding signal (z-score),[26],-0.338
same,glycan array binding signal (z-score),[27],-0.336
same,glycan array binding signal (z-score),[28],-0.329
same,glycan array binding signal (z-score),[29],-0.341
same,glycan array binding signal (z-score),[30],-0.341
same,glycan array binding signal (z-score),[31],-0.329
same,glycan array binding signal (z-score),[32],-0.336
